The full ranking holds about 33,000 sequences; the median of “E-score (-0.5 to 0.5)” is about -0.056, and the highest 2% start at about 0.38. The list shows a part of the results.
Target: Stb4 (UniProt P50104)
Test: PBM E-score (8-mer binding enrichment) (E-score (-0.5 to 0.5)); higher = stronger / more preferred TF binding; most listed sequences are background and not binding sites
Details: protein concentration: 200 nM; construct: GST-DNA-binding domain
Description: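 Universal 'all 10-mer' protein binding microarrays (Agilent AMADID 015681) probed with GST-tagged S. cerevisiae TFs (full-length or DBD) made by in vitro transcription/translation (PURExpress), about 100-200 nM. Bound TF was detected with fluorescent anti-GST. Each ungapped 8-mer (which stands for itself and its reverse complement) is scored by the PBM enrichment score (E-score), a modified Wilcoxon-Mann-Whitney statistic from -0.5 to +0.5, computed with the Universal PBM Analysis Suite. Scale: above 0.35 generally sequence-specific binding.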

Row | Sequence | PBM E-score
1 | AAAACGCC | 0.17
2 | GAGGGCCA | -0.155
3 | GCTATCTA | -0.0253
4 | ACCTCTTC | -0.0573
5 | CTGTTGCA | -0.00839
6 | AGACTGGC | -0.17
7 | GGCTTACC | 0.128
8 | AAAACACT | 0.0517
9 | CTTCACTC | -0.114
10 | CGTTAAGC | -0.06
11 | CGGTATAA | 0.251
12 | AGGCCTAC | -0.176
13 | CGGTTAAC | 0.221
14 | ATATCCTG | -0.0665
15 | AACAGATT | -0.0753
16 | CGGGTTTC | 0.277
17 | AAGCCGTG | 0.0738
18 | CATCGTTA | -0.211
19 | GACCTCAC | -0.0909
20 | CATTGTGG | -0.0833
21 | ATTCATTA | -0.125
22 | TCCCAGCA | -0.0542
23 | AAGCTGTC | -0.17
24 | GAGTCTGC | -0.204
25 | GAACGTAA | 0.0228

Row | Sequence | PBM E-score
26 | CCCTAACA | -0.0489
27 | CAGCCTTC | -0.0839
28 | ACGTTGGA | -0.218
29 | AGTCCCGC | 0.15
30 | GTACTGGA | -0.146
31 | CCAAGTAC | -0.196
32 | AACGAGAT | 0.0091
33 | AGGCCCTC | -0.142
34 | GATTCTCA | -0.13
35 | AGAACGTC | -0.0846
36 | AGGGACGC | -0.283
37 | ACCTGCGC | 0.0374
38 | AGGCATCG | -0.054
39 | GAAGCGAA | -0.0908
40 | ACATTCGT | -0.183
41 | AGTATCGG | 0.296
42 | TCACACGA | -0.0221
43 | ATGATTAA | -0.0965
44 | ACAGACTG | -0.188
45 | GCCCTGAC | -0.311
46 | TACACTGA | -0.0306
47 | CACCTATA | -0.332
48 | AGACGTCG | 0.0424
49 | GACGGTAA | 0.126
50 | ACAAAGGA | -0.0594

Row | Sequence | PBM E-score
51 | CTCCAATA | -0.0752
52 | CAATTAGG | -0.0205
53 | ATCGGCCG | 0.305
54 | AGAAAACA | -0.0314
55 | CGGAAACC | 0.347
56 | ACAAATGC | 0.0346
57 | AAAGGACA | -0.0993
58 | GTCATGGA | -0.153
59 | TAGCCGCA | 0.194
60 | GTAAAGAC | -0.0616
61 | CCCTCAAA | -0.0851
62 | GTGAGAAC | -0.163
63 | CACTGAGC | -0.0964
64 | AGGGATCA | -0.11
65 | ATTAATTC | 0.154
66 | AGCAACCC | 0.0511
67 | AACGGGGT | -0.107
68 | TACCACTA | -0.166
69 | AAGAAACA | 0.0325
70 | ACCAGTAT | 0.0978
71 | GGGCACCC | 0.0879
72 | CAGGACAG | -0.202
73 | ATCAAATC | 0.00194
74 | GAGGCCAA | 0.019
75 | AATTGAGA | -0.0482

Row | Sequence | PBM E-score
76 | CCGATTAC | 0.3
77 | AGGGCAGG | -0.0683
78 | CGGGAGGA | 0.352
79 | GATGGCGA | -0.0541
80 | AGAATACA | 0.0522
81 | AATATCGT | 0.00244
82 | GTAGACCA | -0.156
83 | CGTTTCAA | -0.0406
84 | ATTGGATA | -0.121
85 | TGCTAACA | -0.0419
86 | ATCTTATG | -0.145
87 | ACCTGGCA | -0.0904
88 | AAATTTCA | -0.381
89 | ACTGGGTA | -0.165
90 | CGATCACA | 0.0837
91 | GAGACATA | -0.0788
92 | GCATTCAA | -0.0963
93 | GCTGTTGA | -0.0368
94 | CCCTAATA | -0.253
95 | GTGTGCAA | -0.127
96 | ACGATGAG | 0.00595
97 | GAGACCAA | 0.0703
98 | CTACAGCA | -0.0189
99 | CAATGACA | -0.274
100 | GATCTTCA | 0.112

Row | Sequence | PBM E-score
101 | ACTAAAAA | 0.0862
102 | GCCTTTTA | -0.143
103 | AATTAAGA | -0.146
104 | CGTTCTAG | -0.096
105 | CTAGACAG | -0.114
106 | ACTCCCAA | -0.0831
107 | CTCGAAAG | -0.0594
108 | ACTAGTAC | -0.171
109 | GCACGGCC | 0.0345
110 | ATGGGACA | -0.0554
111 | CATTAGAA | -0.0101
112 | ACTTACTC | -0.0276
113 | ACTATGAT | -0.0459
114 | ACATTAGC | -0.116
115 | CGCCTCGC | -0.126
116 | CGCCCGTA | 0.114
117 | ATTTATAG | -0.23
118 | AATGATCG | 0.12
119 | AGCTTGTC | 0.0309
120 | ACCACGAG | -0.0955
121 | CGGACGCA | 0.128
122 | ATATTACG | 0.0999
123 | CCACCCCA | -0.114
124 | CATAAGTA | -0.0524
125 | CAAACTGA | -0.093

Row | Sequence | PBM E-score
126 | AATGGTAA | 0.121
127 | GAAATAAA | -0.0782
128 | CGCCTGAG | -0.0667
129 | ACACACCT | -0.0221
130 | CGACCGCG | 0.142
131 | GTATAGAA | -0.0177
132 | CAAAGAAC | -0.0719
133 | CCATCAGA | -0.177
134 | ACCTCAAC | -0.129
135 | CCCTCAAG | -0.15
136 | AGGATCAC | -0.249
137 | CTCGGTGA | 0.316
138 | CTGACGTA | -0.0361
139 | ACTGTATA | -0.0986
140 | CTAGCGTC | -0.165
141 | AGTGATCG | -0.148
142 | ATGAACGG | 0.011
143 | CGGTTCAG | 0.173
144 | CAGAAATG | -0.245
145 | GGGTGAGA | 0.0394
146 | CACCACAG | -0.0617
147 | CCCTGACC | 0.0155
148 | ACCAAACA | -0.0484
149 | CGACTCTA | -0.0284
150 | CCTACAAG | -0.104

Row | Sequence | PBM E-score
151 | GAGAGATA | -0.0772
152 | ATGATAGA | -0.0513
153 | ACAGCCCC | -0.174
154 | GCGCAGAC | -0.0787
155 | CTCCCGAC | 0.33
156 | AAGGCTTC | -0.0882
157 | ACGCGATG | -0.107
158 | CCTTTCAA | -0.112
159 | CCAGAAGA | -0.291
160 | CACCTGAA | -0.0897
161 | CTGCTTTA | 0.0123
162 | GGACAGTA | 0.0699
163 | CTACCGGA | 0.279
164 | TCGGTTCA | 0.321
165 | CACCTATC | 0.00998
166 | GCTCGACC | -0.083
167 | CGGACTTC | 0.237
168 | TAAAATAA | -0.0195
169 | ACAGTAAT | -0.214
170 | AAGTCGCG | -0.0401
171 | AACGAGCG | -0.0273
172 | AATCTGGC | -0.066

Reference: the supplement of paper PMC3334620
